# The other results are listed elsewhere or left out.
# Assays:
# Test in all cases: glycan array binding signal (z-score within array); higher = stronger binding
# Details in all cases: glycan notation: IUPAC condensed, linker removed; mutation: F63H
# [1] = target: Fuc(a1-2)[GalNAc(a1-3)]Gal(b1-3)GlcNAc(b1-3)GalNAc
# Summary of the method: (§1)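 The Consortium for Functional Glycomics database supplied 3228 glycan arrays, of which those lacking an available protein sequence were dropped. The binding signal, a within-array Z-score, was averaged across arrays of the same protein sequence and across linkers. Negative scores can be read as non-binding.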
# [2] = target: Fuc(a1-2)[GalNAc(a1-3)]Gal(b1-3)GlcNAc(b1-6)GalNAc
# Summary of the method: as §1
# [3] = target: Fuc(a1-2)[GalNAc(a1-3)]Gal(b1-4)Glc
# Summary of the method: as §1
# [4] = target: Fuc(a1-2)[GalNAc(a1-3)]Gal(b1-4)GlcNAc
# Summary of the method: as §1
# [5] = target: Fuc(a1-2)[GalNAc(a1-3)]Gal(b1-4)GlcNAc(b1-2)Man
# Summary of the method: as §1
# [6] = target: Fuc(a1-2)[GalNAc(a1-3)]Gal(b1-4)GlcNAc(b1-2)Man(a1-3)[Fuc(a1-2)[GalNAc(a1-3)]Gal(b1-4)GlcNAc(b1-2)Man(a1-6)]Man(b1-4)GlcNAc(b1-4)GlcNAc
# Summary of the method: as §1
# [7] = target: Fuc(a1-2)[GalNAc(a1-3)]Gal(b1-4)GlcNAc(b1-2)Man(a1-3)[Fuc(a1-2)[GalNAc(a1-3)]Gal(b1-4)GlcNAc(b1-2)Man(a1-6)]Man(b1-4)GlcNAc(b1-4)[Fuc(a1-6)]GlcNAc
# Summary of the method: as §1
# [8] = target: Fuc(a1-2)[GalNAc(a1-3)]Gal(b1-4)GlcNAc(b1-3)Gal(b1-4)GlcNAc
# Summary of the method: as §1
# [9] = target: Fuc(a1-2)[GalNAc(a1-3)]Gal(b1-4)GlcNAc(b1-3)Gal(b1-4)GlcNAc(b1-3)Gal(b1-4)GlcNAc
# Summary of the method: as §1
# [10] = target: Fuc(a1-2)[GalNAc(a1-3)]Gal(b1-4)GlcNAc(b1-3)GalNAc
# Summary of the method: as §1
# [11] = target: Fuc(a1-2)[GalNAc(a1-3)]Gal(b1-4)GlcNAc(b1-3)[Fuc(a1-2)[GalNAc(a1-3)]Gal(b1-4)GlcNAc(b1-6)]GalNAc
# Summary of the method: as §1
# [12] = target: Fuc(a1-2)[GalNAc(a1-3)]Gal(b1-4)GlcNAc(b1-6)GalNAc
# Summary of the method: as §1
# [13] = target: Fuc(a1-2)[GalNAc(a1-3)]Gal(b1-4)[Fuc(a1-3)]GlcNAc
# Summary of the method: as §1
# [14] = target: Fuc(a1-2)[GalNAc(a1-3)]Gal(b1-4)[Fuc(a1-3)]GlcNAc(b1-3)GalNAc
# Summary of the method: as §1
# [15] = target: Fuc(a1-2)[GalNAc(a1-4)]Gal(b1-4)GlcNAc
# Summary of the method: as §1
# [16] = target: Fuc(a1-2)[GalNAc(b1-3)]Gal
# Summary of the method: as §1
# Fuc(a1-3)GlcNAc = target: Fuc(a1-3)GlcNAc
# Summary of the method: as §1
# [17] = target: Fuc(a1-3)[Gal(b1-4)]Glc6S
# Summary of the method: as §1
# [18] = target: Fuc(a1-3)[Gal(b1-4)]GlcNAc
# Summary of the method: as §1
# [19] = target: Fuc(a1-3)[Gal(b1-4)]GlcNAc(b1-2)Man
# Summary of the method: as §1
# [20] = target: Fuc(a1-3)[Gal(b1-4)]GlcNAc(b1-2)Man(a1-3)[Fuc(a1-3)[Gal(b1-4)]GlcNAc(b1-2)Man(a1-6)]Man(b1-4)GlcNAc(b1-4)GlcNAc
# Summary of the method: as §1
# [21] = target: Fuc(a1-3)[Gal(b1-4)]GlcNAc(b1-2)Man(a1-3)[Fuc(a1-3)[Gal(b1-4)]GlcNAc(b1-2)Man(a1-6)]Man(b1-4)GlcNAc(b1-4)[Fuc(a1-6)]GlcNAc
# Summary of the method: as §1
# [22] = target: Fuc(a1-3)[Gal(b1-4)]GlcNAc(b1-3)Gal(b1-3)[Fuc(a1-4)]GlcNAc
# Summary of the method: as §1
# [23] = target: Fuc(a1-3)[Gal(b1-4)]GlcNAc(b1-3)Gal(b1-4)[Fuc(a1-3)]GlcNAc
# Summary of the method: as §1
# [24] = target: Fuc(a1-3)[Gal(b1-4)]GlcNAc(b1-3)Gal(b1-4)[Fuc(a1-3)]GlcNAc(b1-3)Gal(b1-4)[Fuc(a1-3)]GlcNAc
# Summary of the method: as §1
# [25] = target: Fuc(a1-3)[Gal(b1-4)]GlcNAc(b1-3)GalNAc
# Summary of the method: as §1
# [26] = target: Fuc(a1-3)[Gal(b1-4)]GlcNAc(b1-6)GalNAc
# Summary of the method: as §1
# [27] = target: Fuc(a1-3)[Gal(b1-4)]GlcNAc(b1-6)[Gal(b1-3)GlcNAc(b1-3)]Gal(b1-4)Glc
# Summary of the method: as §1
# [28] = target: Fuc(a1-3)[Gal(b1-4)]GlcNAc6S
# Summary of the method: as §1
# [29] = target: Fuc(a1-3)[Gal3S(b1-4)]Glc
# Summary of the method: as §1
# [30] = target: Fuc(a1-3)[Gal3S(b1-4)]GlcNAc
# Summary of the method: as §1
# [31] = target: Fuc(a1-3)[Gal3S(b1-4)]GlcNAc6S
# Summary of the method: as §1
# [32] = target: Fuc(a1-3)[GalNAc(b1-4)]GlcNAc
# Summary of the method: as §1
# [33] = target: Fuc(a1-3)[GalNAc(b1-4)]GlcNAc6S
# Summary of the method: as §1
# Fuc(a1-4)GlcNAc = target: Fuc(a1-4)GlcNAc
# Summary of the method: as §1
# Fuc(b1-3)GlcNAc = target: Fuc(b1-3)GlcNAc
# Summary of the method: as §1
# Gal(a1-2)Gal = target: Gal(a1-2)Gal
# Summary of the method: as §1
binder,measurement,setting,value
"AAL (Agrocybe aegerita), Q6WY08 (protein) MQGVNIYNISAGTSVDLAAPVTTGDIVTFFSSALNLNAGAGNPNNTTLNLFAENGAYLLHIAHRLQENVIIFNSRQPDGPWLVEQRVSDVANQFAGIDGKAMVTVFDHGDKYQVVINEKTVIQYTKQISGLTLSLSYNATEETSIFSTVVEAVTYTGLALEHHHHHH",glycan array binding signal (z-score),[1],0.304
same,glycan array binding signal (z-score),[2],-0.234
same,glycan array binding signal (z-score),[3],0.356
same,glycan array binding signal (z-score),[4],-0.058
same,glycan array binding signal (z-score),[5],-0.462
same,glycan array binding signal (z-score),[6],0.237
same,glycan array binding signal (z-score),[7],-0.141
same,glycan array binding signal (z-score),[8],-0.307
same,glycan array binding signal (z-score),[9],-0.016
same,glycan array binding signal (z-score),[10],-0.565
same,glycan array binding signal (z-score),[11],0.172
same,glycan array binding signal (z-score),[12],-0.202
same,glycan array binding signal (z-score),[13],-0.038
same,glycan array binding signal (z-score),[14],-0.211
same,glycan array binding signal (z-score),[15],0.336
same,glycan array binding signal (z-score),[16],-0.544
same,glycan array binding signal (z-score),Fuc(a1-3)GlcNAc,-0.394
same,glycan array binding signal (z-score),[17],-0.357
same,glycan array binding signal (z-score),[18],-0.254
same,glycan array binding signal (z-score),[19],-0.067
same,glycan array binding signal (z-score),[20],-0.217
same,glycan array binding signal (z-score),[21],-0.069
same,glycan array binding signal (z-score),[22],-0.001
same,glycan array binding signal (z-score),[23],-0.051
same,glycan array binding signal (z-score),[24],-0.057
same,glycan array binding signal (z-score),[25],-0.273
same,glycan array binding signal (z-score),[26],-0.056
same,glycan array binding signal (z-score),[27],-0.124
same,glycan array binding signal (z-score),[28],-0.06
same,glycan array binding signal (z-score),[29],-0.254
same,glycan array binding signal (z-score),[30],-0.162
same,glycan array binding signal (z-score),[31],-0.069
same,glycan array binding signal (z-score),[32],0.22
same,glycan array binding signal (z-score),[33],-0.005
same,glycan array binding signal (z-score),Fuc(a1-4)GlcNAc,0.085
same,glycan array binding signal (z-score),Fuc(b1-3)GlcNAc,0.06
same,glycan array binding signal (z-score),Gal(a1-2)Gal,-0.435
